Among all 310,000 compounds or so, about 14,000 (4.5%) showed an effect of 50% or more. Effects have a minus sign here. Some of the results follow.
Target: human ether-à-go-go-related gene (hERG) potassium channel (human, UniProt Q12809)
Assay: primary screen, population patch clamp on CHO cells stably expressing hERG
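Note: peak tail current of the secondary pulse compared with the same well before compound.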

Sequence of human ether-à-go-go-related gene (hERG) potassium channel (Q12809 whole entry, looked up): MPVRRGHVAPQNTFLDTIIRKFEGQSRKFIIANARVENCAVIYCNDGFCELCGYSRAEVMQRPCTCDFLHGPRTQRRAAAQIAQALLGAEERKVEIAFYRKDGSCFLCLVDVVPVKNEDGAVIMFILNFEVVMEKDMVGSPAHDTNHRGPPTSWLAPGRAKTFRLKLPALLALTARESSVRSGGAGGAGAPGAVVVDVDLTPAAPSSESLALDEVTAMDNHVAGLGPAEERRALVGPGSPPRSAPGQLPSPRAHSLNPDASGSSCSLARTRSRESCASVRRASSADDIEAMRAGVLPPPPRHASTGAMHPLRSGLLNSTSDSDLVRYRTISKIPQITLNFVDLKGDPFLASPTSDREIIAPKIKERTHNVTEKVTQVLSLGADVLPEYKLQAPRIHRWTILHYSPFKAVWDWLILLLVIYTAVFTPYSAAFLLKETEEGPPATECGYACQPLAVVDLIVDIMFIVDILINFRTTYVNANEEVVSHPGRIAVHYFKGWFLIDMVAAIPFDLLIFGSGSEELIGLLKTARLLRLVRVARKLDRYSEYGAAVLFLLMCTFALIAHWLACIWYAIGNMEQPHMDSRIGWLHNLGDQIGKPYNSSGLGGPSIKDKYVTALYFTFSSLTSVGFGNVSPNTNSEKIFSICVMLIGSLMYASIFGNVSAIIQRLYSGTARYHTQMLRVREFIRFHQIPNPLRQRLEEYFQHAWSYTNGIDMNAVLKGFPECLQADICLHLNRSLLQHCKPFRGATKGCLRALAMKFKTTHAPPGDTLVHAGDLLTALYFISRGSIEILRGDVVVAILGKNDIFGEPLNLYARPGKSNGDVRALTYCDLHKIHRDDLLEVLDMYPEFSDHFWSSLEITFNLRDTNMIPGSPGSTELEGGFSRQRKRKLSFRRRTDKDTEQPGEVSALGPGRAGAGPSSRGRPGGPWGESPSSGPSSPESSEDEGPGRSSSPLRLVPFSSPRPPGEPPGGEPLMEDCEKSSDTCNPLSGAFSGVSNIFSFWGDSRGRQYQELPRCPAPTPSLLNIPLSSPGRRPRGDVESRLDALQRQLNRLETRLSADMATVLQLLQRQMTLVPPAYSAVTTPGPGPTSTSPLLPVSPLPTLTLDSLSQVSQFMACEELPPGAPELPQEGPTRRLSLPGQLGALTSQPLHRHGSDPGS

Row | Structure (SMILES) | hERG current change (%, negative = inhibition) at 10uM [%]
1 | Cc1ccc2sc(N(CCCN(C)C)C(=O)c3ccc(S(=O)(=O)N(C)C4CCCCC4)cc3)nc2c1C.Cl | -8.13
2 | CCCn1c(C(Cc2ccccc2)NC(=O)COC)nc2ccccc21 (stereo not drawn) | 2.2
3 | COCC1CCCCN1C(=O)c1cccc(OC2CCN(S(C)(=O)=O)CC2)c1 (stereo not drawn) | 14.7
4 | CC12CCC3c4ccc(O)cc4CCC3C1CC(O)C2O (stereo not drawn) | 19.5
5 | O=C(c1ccc(Cl)c(Cl)c1)c1cc(-c2ccccn2)c(N2CCOCC2)s1 | -29.1
6 | Cc1cc(=O)oc2cc(OCC(=O)Nc3ccc(N4CCC(C)CC4)cc3)ccc12 | 6.53
7 | Cl.c1ccc([C@H]2CN3CCSC3=N2)cc1 | 7.35
8 | O=C1N/C(=N/c2ccccn2)SC1Cc1ccccc1 (stereo not drawn) | -13.7
9 | CN1CCN(C(c2cc3cc4c(cc3[nH]c2=O)OCCO4)c2nnnn2C2CCCC2)CC1 (stereo not drawn) | -9.91
10 | CCN(CC)C(=O)c1c(Cl)nc(C)c([N+](=O)[O-])c1C | 21.5
11 | CC(=O)c1ccc(-c2ccc(C(=O)N(C)Cc3nc4ccccc4c(=O)[nH]3)o2)cc1 | -20.7
12 | Cc1ccc(Nc2c(-c3ccccn3)nc3ccc(C)cn23)cc1 | -18.6
13 | NC(=O)C1=NOC(CNc2ncc(C(F)(F)F)cc2Cl)C1 (stereo not drawn) | 0.535
14 | NC(=O)c1oc2ccccc2c1NC(=O)c1nc2ccccc2s1 | 6.28
15 | COc1cccc(N2CCN(Cc3nc4scc(-c5ccccc5)c4c(=O)[nH]3)CC2)c1 | -1.47
16 | O=c1cc(-c2ccccc2)nc2cc(-c3ccco3)[nH]n12 | 12.8
17 | CCOC(=O)[C@H]1[C@H]2COc3ccc(Br)cc3[C@@H]2N2C(=O)c3ccc(Cl)cc3NC(=O)[C@@]12C | -1.19
18 | COC(=O)C[C@](O)(CCCC(C)(C)O)C(=O)O[C@@H]1C(OC)=C[C@]23CCCN2CCc2cc4c(cc2[C@H]13)OCO4 | 10.4
19 | O=C(NCc1ccccc1)Nc1cccn(Cc2ccccc2)c1=O | 10.4
20 | COC(=O)C1CCCCN1C(=O)c1cc(COc2cccc3cnccc23)on1 (stereo not drawn) | -2.95
21 | COc1cc(CN2CCCC(C)C2)cc([N+](=O)[O-])c1O (stereo not drawn) | 13.4
22 | O=C(Nc1ccc2ccccc2n1)C1CCCCC1 | -6.07

Row | Structure (SMILES) | hERG current change (%, negative = inhibition) at 10uM [%]
23 | CCC(OC(=O)c1ccco1)C(=O)NCc1ccc2c(c1)OCO2 (stereo not drawn) | -5.67
24 | COc1ccccc1-c1c(C)oc2c(CN3CCN(C)CC3)c(O)ccc2c1=O | 21.4
25 | Cn1c(=O)c2c(SCC(=O)N3CCOCC3)nc(-c3ccccc3F)nc2n(C)c1=O | -8.27
26 | O=C(C1=C[C@H](C2CCCCC2)C[C@H](OCCCCO)O1)N1CCOCC1 | 9.68
27 | COc1ccccc1CNC(=O)[C@@H](NC(=O)C1CCN(C(=O)[C@@H]2CCCN2)CC1)C(C)C | 2.92
28 | Br.COc1ccc(C2=CSC3=NCCN23)cc1F | -13.9
29 | CN(c1ccccc1C(=O)N1CCN(c2ccccc2)CC1)S(C)(=O)=O | -16.3
30 | CCOc1ccccc1C(=O)OCC(=O)Nc1ccc(OC(F)F)cc1 | -54
31 | O=S(=O)(c1ccc(Cl)nc1)N1CCN(c2ncccn2)CC1 | -0.184
32 | CC[n+]1c(/C=C/Nc2ccccc2)sc2ccccc21.[I-] | -72.2
33 | Cc1cccc(N2CCN(c3ccc(N4C(=O)CCCC4=O)cc3[N+](=O)[O-])CC2)c1C | -17.6
34 | Nc1ccc(C(=O)OCC(=O)c2cccc([N+](=O)[O-])c2)cc1 | 39.8
35 | COc1c(Cl)cc(Cl)cc1CNCCNCCO.Cl | -16
36 | O=C(CN1C(=O)C2CCCCC2C1=O)N1CCN(c2ccc(F)cc2)CC1 (stereo not drawn) | -12.2
37 | CSc1ccc(S(=O)(=O)NCc2ccccc2)cc1 | 13.1
38 | O=C(NC(=S)N1CCN(c2ccc([N+](=O)[O-])cc2)CC1)c1ccco1 | -61.2
39 | CCOc1ccc(C(=O)NC(C)CCc2ccccc2)cc1 (stereo not drawn) | 12.3
40 | COc1ccc(NC(=O)CCN2CCN(Cc3ccccc3)CC2)c(OC)c1 | -15.7
41 | COc1ccccc1/C=C/C=N/n1c(-c2cc(-c3ccccc3)n[nH]2)n[nH]c1=S | 21.2
42 | O=S(=O)(c1ccc(Cl)cc1)c1nc(-c2ccccc2F)oc1NCCCN1CCOCC1 | -10.4
43 | CCOc1ccc(S(=O)(=O)NCc2cccnc2)c2ccccc12 | -6.83
44 | COc1ccc2cc(CCNC(=O)c3cccs3)c(=O)[nH]c2c1 | -5.27

Row | Structure (SMILES) | hERG current change (%, negative = inhibition) at 10uM [%]
45 | Cc1cc(C)cc(N(CC(=O)N2CCCC2)S(C)(=O)=O)c1 | -10.9
46 | COc1ccc(C2=CC(=O)C[C@H](c3ccc(F)cc3)C2)cc1OC | -8.74
47 | O=C(NC(NC(=O)c1ccccc1)c1cccc([N+](=O)[O-])c1)c1ccccc1 | 1.61
48 | Cc1sc(NC(=O)CSc2nnc(C(C)C)n2C)c(C#N)c1C | -1.79
49 | COc1cc(O)c(C(CCN2CCN(c3ccccc3)CC2)c2ccc(N(C)C)cc2)c(OC)c1 (stereo not drawn) | 5.52
50 | C/C(=C\c1ccccc1)CN1CCN(Cc2ccc(C)o2)C(CCO)C1 (stereo not drawn) | -13.4
51 | CC(=O)Nc1sc(NC(=O)c2ccc(Cl)cc2)nc1-c1cccs1 | -3.55
52 | COc1ccc(Cl)cc1C(=O)NNC(=S)NC(=O)c1cc(-c2ccccc2)nc2ccccc12 | 16.3
53 | O=C(NCC(=O)N(c1ccccc1)C(C(=O)NC1CCCC1)c1cccnc1)c1ccco1 (stereo not drawn) | 3.53
54 | COc1ccc(-c2nc3ccccc3n2OC(C)C(=O)O)cc1 (stereo not drawn) | 22.2
55 | C=Cn1cc[n+](CC(=O)c2ccc(OC)cc2)c1.[Br-] | -10.5
56 | Cc1ccc(-n2c(SCC3CCCCO3)nnc2-c2ccco2)cc1 (stereo not drawn) | -19.9
57 | O=C(c1ccco1)N1CCN(S(=O)(=O)c2ccc3c(c2)OCCO3)CC1 | -0.283
58 | CNC(=O)CSc1nc2ccccc2c(=O)n1-c1cc(OC)ccc1OC | -3.21
59 | CCOc1ccc(C(=O)NCC(=O)N2CCC3CCCCC3C2)cc1OCC (stereo not drawn) | -6.14
60 | CN(C)C(=O)c1cc(C(=O)c2ccccc2)c[nH]1 | 3.99
61 | CCN(Cc1ccncc1)C(=O)c1ccccc1NS(=O)(=O)c1ccc(F)cc1 | 1.78
62 | Cc1ccc2nc3c(cc(C(N)=S)c(=N)n3CCCOC(C)C)c(=O)n2c1 | -74.4
63 | Nc1ccccc1SCc1csc(-c2ccc(Cl)cc2)n1 | 13.5
64 | Cc1nc2ccc(NC(=O)c3cncc(Br)c3)cc2s1 | -6.23
65 | O=C(c1cc2nc(-c3ccco3)cc(C(F)(F)F)n2n1)N1CCc2ccccc2C1 | -11.2
66 | Cn1cc([C@@H]2C[C@H]3CN(Cc4cccc(Cl)c4)C(=O)[C@]34CCCN24)c2ccccc21 | -72.7

Row | Structure (SMILES) | hERG current change (%, negative = inhibition) at 10uM [%]
67 | CCOC(=O)c1sc(N)c(C(=O)OCC)c1C | 9.73
68 | Cc1csc(NC(=O)CSc2ccc(-c3ccc(F)cc3)nn2)n1 | -26.8
69 | CCn1c(Cc2ccc(OC)cc2)nnc1SCC(=O)NC1CCCCC1 | 15.3
70 | CCCOC(=O)c1ccc(-c2ccc(C=O)o2)cc1 | -7.75
71 | CCC(CC)NC(=O)C1CCN(c2ccc(S(=O)(=O)N3CCOCC3)cc2[N+](=O)[O-])CC1 | -2.79
72 | CN1C2CCC1CC(NC(=O)c1ccc(Cl)cc1)C2 (stereo not drawn) | 7.55
73 | COC(=O)C(NC(C)=O)(Nc1ccc(Br)cn1)C(F)(F)F (stereo not drawn) | 3.47
74 | Cc1ccc(N(C)C(=O)N2CCN(S(=O)(=O)c3ccc4ccccc4c3)CC2)cc1 | -4.15
75 | Cc1nc2sc(C(c3cccs3)N3CC(C)CC(C)C3)c(O)n2n1 (stereo not drawn) | -10.5
76 | O=C(COc1ccc(Br)cc1)NC1CC1 | 5.78
77 | CC(C)n1c(NCc2ccc(N(C)C)cc2)nc2ccccc21 | -25.1
78 | CN(C)C1(CNC(=O)Cc2ccccc2F)CCCCC1 | 13.2
79 | Cc1c(CN2CCCC(C(=O)c3cccc(OC(C)C)c3)C2)c(=O)n(-c2ccccc2)n1C (stereo not drawn) | -57.2
80 | CCOC(=O)c1c(C)n(C)c2cc(-c3ccc(F)cc3)c(O)cc12 | 13.7
81 | COCc1nnc(NC(=O)c2ccc(S(=O)(=O)N3CCCc4ccccc43)cc2)o1 | 11
82 | Cn1ccnc1Sc1nnnn1-c1ccccc1 | -9
83 | O=C(NC1CCCC1)C1CCN(C(=O)c2ccc(Cl)cc2Cl)CC1 | 9
84 | O=S1(=O)NC(=NCc2ccco2)c2ccccc21 | 2.66
85 | CCC(C)NC(=O)C1(C)CCC(=O)N1Cc1ccccc1OC (stereo not drawn) | -1.24
86 | Cc1ccc(C(C)C)c(OCC(=O)NNC2=CC(=O)CC(C)(C)C2)c1 | -11.9
87 | O=S(=O)(c1ccccc1C(F)(F)F)N1CCOCC1 | 3.29
